Measurements reported in article PMC12136788.
Some of the results follow.

T1: UNK ZnF1-3 (human, UniProt Q9C0B0 31-174)
T1 sequence: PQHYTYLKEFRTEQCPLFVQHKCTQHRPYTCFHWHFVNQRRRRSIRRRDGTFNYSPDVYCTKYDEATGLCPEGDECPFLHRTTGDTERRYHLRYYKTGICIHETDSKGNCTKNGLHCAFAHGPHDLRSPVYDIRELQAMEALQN

B1: 100648241_100648361_5692_3pUTR_ENSMUSG00000023032_ENSMUST00000023776|mouse|control|control (ssRNA)
RNA: GGGAGUUCUACAGUCCGACGAUCAGAGCCAAGGCUUCAAUUAACGUGUUCUUGAGUCCCAGCCCCCCAACUCCACUCACACCACCAGCUGACAUUACCAGCAAGUCAUGACAUUAGCUGGCCACAUUCAAGACGUGUCUGAGACAACAGAGGAUUGAGCAUCA
B2: 182499086_182499206_61_5pUTR_ENSMUSG00000026496_ENSMUST00000027777|mouse|control|control (ssRNA)
RNA: GGGAGUUCUACAGUCCGACGAUCCGCGUACUCCACUCGAUAAAGCCUCUCCGAGGCCUCCGCCAUCCUCCUUCUCGUGCUGCAGCGGCAGCCCGACGCCGCCGCUGGUGCGCUCCGCUAACGUGUCGGUUUCCCCCGCAAGCGCAACAGAGGAUUGAGCAUCA
B3: 118649187_118649598_1739_CDS_ENSMUSG00000020114_ENSMUST00000020315|mouse|control|control (ssRNA)
RNA: GGGAGUUCUACAGUCCGACGAUCCAGUGAGAAAAUGAUUCCUGGUACCAGUACAGGAAUGUGCUGGGUUAGUGCUCCCGGCAGCACAUUUACCAGCUCAGUUAACAUGUUAAAGCAACACUGUCGGGUCUUCACACUCUUCUCCAACAGAGGAUUGAGCAUCA
B4: chr12:493273:493274:-_ENSG00000073614_ENST00000399788|hu_mus|hu_hu_hu_mus_False|28_58 (ssRNA)
RNA: GGGAGUUCUACAGUCCGACGAUCUUUUCUCUCCACCACAGGGAUCUUCAAUGUAGAUCCUUGAAGUUCCCAAAAUUUUGCUAGUUGAUCCAAGAAGUCCAAUCUUACUCUGGUCAUUGCCUCAAGUUCAUUCAGGCGCUGGACCAACAGAGGAUUGAGCAUCA
B5: chr1:187196858:187196859:+_ENSMUSG00000026615_ENSMUST00000046514|mus_hu|FALSE|FALSE (ssRNA)
RNA: GGGAGUUCUACAGUCCGACGAUCAACAUCCCACUUGGUACCUACUGACUGGAAGGCCUGCUGGGCUUCAAGAAAGCCAAACCAACGUUUUACAUGAACUGGAGCUUUCUUCUGUUUCAACUGUUCUUGCCAGGCAGCAUUUCCCAACAGAGGAUUGAGCAUCA
B6: 43184458_43184578_3020_3pUTR_ENSG00000136448_ENST00000258960|human|control|control (ssRNA)
RNA: GGGAGUUCUACAGUCCGACGAUCCCAAAACCCACAGCCUGCAACAAGCCCCUGCUGGCCUGUAGAAAGUGGCUUCGGUGAGUGGCACAGGGCUGAGCCUGGCCUCCUGGCUAAGGCUUCAUUCCUGUAUGAGCGGAGAGGUGACAACAGAGGAUUGAGCAUCA
B7: chr1:163112212:163112213:-_ENSG00000143248_ENST00000313961|hu_hu|hu_hu_hu_mus_False|8_38 (ssRNA)
RNA: GGGAGUUCUACAGUCCGACGAUCUUUUAUUAUCAGUAAGAGUGAGUUACAUACUAGGCAAAGUAUUGGAUACAAUAAUCAGGAAACAAACACUAUUUUUCUUGAAUUUAAAACUUUAUGAGCGAAGGCUUACAAAUGGACUUACAACAGAGGAUUGAGCAUCA
B8: chr10:57939204:57939205:+_ENSMUSG00000003226_ENSMUST00000003310|mus_mus|motif|central (ssRNA)
RNA: GGGAGUUCUACAGUCCGACGAUCGGGUGGCCUUAUUACUUCACCCUGCAUGGGCUGAACGAAAUUGGAUUUUCCAAAUUCGGUAACCUUUGAUUCUGCUGACCUUGAAGCGUGAGCUACAAGUGGAGGCUUUGUGAAAUACCCCAACAGAGGAUUGAGCAUCA
B9: chrX:98862621:98862622:+_ENSMUSG00000034160_ENSMUST00000044475|mus_hu|mus_mus_mus_hu_False|28_78 (ssRNA)
RNA: GGGAGUUCUACAGUCCGACGAUCCUGCAUCUCCUUUAGAGUGUUUCCCAUAUUAGAAUAAGCAUCAGCAAAGGUAGGACUGAUUCGAAUAGCCUCCUUAUAAUGCAUCAGUGCUUCCUGCAGUUUUCCCUGCUGCUGCAGUACCAACAGAGGAUUGAGCAUCA
B10: chr2:155843326:155843327:+_ENSMUSG00000005881_ENSMUST00000006035|mus_hu|FALSE|FALSE (ssRNA)
RNA: GGGAGUUCUACAGUCCGACGAUCUUGGUCGCCCAACAGCCCAUUGGCAACCUUCUCAUGUCUGGUCACAGAGAACUGAUUUGUCCUCAGUACCUCUCCGUCCACCUUCAUGUACACAGUGGGCACCACCUUCACAAAGUACUGCAACAGAGGAUUGAGCAUCA
B11: chr12:39756943:39756944:-_ENSG00000139116_ENST00000544797|hu_mus|hu_hu_hu_mus_False|1_78 (ssRNA)
RNA: GGGAGUUCUACAGUCCGACGAUCGGUUUGGCUGUUACCCCCAAGGGAAUCCUGCAAUAGUCUUGUUAGCUUAGAGUCUCUGUAAGGGACAUGGGUGGCUCUCUUGCUCUUGUCCCCCAAGGCGCUGAUUACAUUCCCAAGUGCCAACAGAGGAUUGAGCAUCA
B12: chr2:198367945:198367946:+_ENSG00000115541_ENST00000409468|hu_hu|motif|central (ssRNA)
RNA: GGGAGUUCUACAGUCCGACGAUCGCCAUUUCAAUAGUGACUUAUUUCAGUCUACGUACUUUCCAAGAAUGUCACCAUCUCGGAAUAGGAAAUAAUCCUGCAAGUGAAAAAAACCAUUAGUUAAGACAACUAAUUGCAAAUAUCCAACAGAGGAUUGAGCAUCA
B13: chr5:132409753:132409754:+_ENSG00000170606_ENST00000304858|hu_mus|motif|central (ssRNA)
RNA: GGGAGUUCUACAGUCCGACGAUCUUUAUUAAAUGCACAUACAGAAACUUGAUAGGCAGAAUGUCCCAUAUCUACAAAAACGGCAUUUCUUGGUUUUUCUUCUAAGGCAGGAAGGUCUUGUUUAUAGAUUCCAUAAGCAAGAGCCAACAGAGGAUUGAGCAUCA
B14: chr3:122261000:122261001:-_ENSMUSG00000039735_ENSMUST00000162409|mus_mus|FALSE|FALSE (ssRNA)
RNA: GGGAGUUCUACAGUCCGACGAUCGUAAUCUUCAAAUGGAAAGUCUCCUGGAGGUUCAAAGCCAGACUUGAAGGAGUCUACUACCAUUUGAGAAUCUCUUCUUUCAUCAACUGAUUUUGCUGCAAGAAUCAUUCCUUCUAAACACAACAGAGGAUUGAGCAUCA
B15: 37285371_37286376_123_CDS_ENSMUSG00000066798_ENSMUST00000053098|mouse|control|control (ssRNA)
RNA: GGGAGUUCUACAGUCCGACGAUCCUGUAGGACCACAUCUCCUUGCUGUUCAAACUGGAAGUGUAGAACAUCAGACUCAGCAGCCAUGGUCACGAUCGACUAGCAAAACUGGCUUUGAGGCUUCCGCGGCAAUGGCAGCCCAGGCAACAGAGGAUUGAGCAUCA
B16: chr11:4127340:4127341:+_ENSG00000167325_ENST00000300738|hu_mus|hu_hu_hu_mus_False|38_88 (ssRNA)
RNA: GGGAGUUCUACAGUCCGACGAUCGGCAUAGUCAGGGUGCUUCGUGGUCAAGGUUGCGGCUGUCUCAGCAGCCAGGGUGUCCAGUUCCACUGUGGUGACCCCACUGUAUAGGCCUUGGAUUACUUUCAUGGUGAUCUGAGCAGGCAACAGAGGAUUGAGCAUCA
B17: chr6:150114741:150114742:+_ENSG00000120265_ENST00000367380|hu_mus|FALSE|FALSE (ssRNA)
RNA: GGGAGUUCUACAGUCCGACGAUCCCCCGAGGACAGGAGCAUUGGGUCAUCCUUUUUGACAUUAGUUAUUGAGUCAUCUACUAGUUCUUUAAUGUGAUCAAUUCCAAUGACUUUUCCACUAUUUCCAACCAUCCGUGCAAAACACAACAGAGGAUUGAGCAUCA
B18: chr4:138441076:138441077:-_ENSG00000189184_ENST00000507846|hu_mus|motif|central (ssRNA)
RNA: GGGAGUUCUACAGUCCGACGAUCGGAUAAAUCAGACAAAAUUGCAGUAACAAAAAAAGUGACUUUAUAAAUGUUCAUAUGCGGAAAAUACAAGCAAAACUGUGAUAGCAUGCACAAGAGACAAAAGCUAAAGGUGAAUAAUUACAACAGAGGAUUGAGCAUCA
B19: chr2:178096590:178096591:-_ENSG00000116044_ENST00000397062|hu_mus|FALSE|FALSE (ssRNA)
RNA: GGGAGUUCUACAGUCCGACGAUCGAGGAUGCUGCUGAAAGAAUCCUCAAAACCAUGAAGGAAAUGUGGACCACAGUUGCCCACUUCUUUUUCCAGCGAGGAGAUCGAUGAGUAAAAAUGGUAAUUGCUGUCCAUUUCUGUCAGCAACAGAGGAUUGAGCAUCA
B20: chr15:59961163:59961164:-_ENSG00000140299_ENST00000607373|hu_hu|motif|central (ssRNA)
RNA: GGGAGUUCUACAGUCCGACGAUCGCCAACGUAUUCCAUGGGGACAAGUUCUGCUAGUUCUGCCAAAUUAAACACGUAUCGGAUUUUUUGGCUGAAUUUCGAGCUAAUAAAUGGUCUUGUAACAGCCAGAAGUGUUCUGAUAAACAACAGAGGAUUGAGCAUCA
B21: chr12:15822463:15822464:-_ENSMUSG00000020601_ENSMUST00000020922|mus_mus|motif|central (ssRNA)
RNA: GGGAGUUCUACAGUCCGACGAUCAAAAGGAUCAAGAAGGGAGGGGACCCGUCUGGGGCUCCGUGGAGGAAGAGUUAAGAACGGGCCCCCAGAUGGGCGCUGCAGGGCUGGUCCCCGGCUGCGAGCCCCGCUCCCGGGGGUGCUCAACAGAGGAUUGAGCAUCA
B22: chr2:216981417:216981418:+_ENSG00000079246_ENST00000392132|hu_hu|hu_hu_hu_mus_True|68_108 (ssRNA)
RNA: GGGAGUUCUACAGUCCGACGAUCCUGAUACUGAUCCUUGCCAGCAAGGGCAUUAUCAGUGCCAUCUGUACCAAACAGGACUAACGCAAUCUCAUCUUUGCUCUCCGAAAAUACCUGUCGUUGGACAAACAUAGUCAUCACUUUCAACAGAGGAUUGAGCAUCA

These binders were tested against T1, UNK ZnF1-3 (assay: nsRBNS (natural sequence RNA bind-n-seq); RBNS binding buffer (assumed for nsRBNS): 25 mM Tris pH 7.5, 150 mM KCl, 3 mM MgCl2, 0.01% Triton X-100, 500 ug/ml BSA, 20 U/ml SUPERase-In, 4 C; UNK is unkempt and MSI1 is Musashi-1; names of the RNAs are library labels; protein concentration not given here; high values mean tight binding).

Binder	binding signal [enrichment R]
B1	0.948
B2	0.87
B3	0.736
B4	0.939
B5	1.31
B6	1.16
B7	0.948
B8	0.757
B9	0.995
B10	1.03
B11	0.601
B12	0.501
B13	0.764
B14	0.872
B15	1.21
B16	0.912
B17	1.05
B18	2.52
B19	0.808
B20	0.915
B21	0.933
B22	0.709
